# In PMC3196505:
# No constants are given. Whether binding was seen depends on the method and setting. Some binding calls cover weakened binding; strength is not graded here. Tags and fused reporters may be left off the sequences shown.
# B1: ARC6 library clone, prey fragment nucleotides 129-1020 (domain or fragment, UniProt Q9FIG9 44-340)
# chain: DRLLSDFNFTSDSSSSSFATATTTATLVSPPPSIDRPERHVPIPIDFYQVLGAQTHFLTDGIRRAFEARVSKPPQFGFSDDALISRRQILQAACETLSNPRSRREYNEGLLDDEEATVITDVPWDKVPGALCVLQEGGETEIVLRVGEALLKERLPKSFKQDVVLVMALAFLDVSRDAMALDPPDFITGYEFVEEALKLLQEEGASSLAPDLRAQIDETLEEITPRYVLELLGLPLGDDYAAKRLNGLSGVRNILWSVGGGGASALVGGLTREKFMNEAFLRMTAAEQVDLFVATPS
# B2: CJD1_(60–164), GAL4 fusion (directed yeast 2-hybrid) (domain or fragment, UniProt Q93WG3 60-164)
# chain: ASSAAGNPQSDADFNPYEVLGVNPIEGFDKIKQTYGRKLKDAQRSGDEATAALLEKAYDKLMYAQLMNRKKGVTFGSFKVSKDIKYADKQPIIPWGPRFSRSSKN
# B3: ARC6 library clone, prey fragment nucleotides 159-1030 (domain or fragment, UniProt Q9FIG9 54-343)
# chain: SDSSSSSFATATTTATLVSPPPSIDRPERHVPIPIDFYQVLGAQTHFLTDGIRRAFEARVSKPPQFGFSDDALISRRQILQAACETLSNPRSRREYNEGLLDDEEATVITDVPWDKVPGALCVLQEGGETEIVLRVGEALLKERLPKSFKQDVVLVMALAFLDVSRDAMALDPPDFITGYEFVEEALKLLQEEGASSLAPDLRAQIDETLEEITPRYVLELLGLPLGDDYAAKRLNGLSGVRNILWSVGGGGASALVGGLTREKFMNEAFLRMTAAEQVDLFVATPSNIP
# B4: ARC6 library clone, prey fragment nucleotides 174-1265 (domain or fragment, UniProt Q9FIG9 59-422)
# chain: SSFATATTTATLVSPPPSIDRPERHVPIPIDFYQVLGAQTHFLTDGIRRAFEARVSKPPQFGFSDDALISRRQILQAACETLSNPRSRREYNEGLLDDEEATVITDVPWDKVPGALCVLQEGGETEIVLRVGEALLKERLPKSFKQDVVLVMALAFLDVSRDAMALDPPDFITGYEFVEEALKLLQEEGASSLAPDLRAQIDETLEEITPRYVLELLGLPLGDDYAAKRLNGLSGVRNILWSVGGGGASALVGGLTREKFMNEAFLRMTAAEQVDLFVATPSNIPAESFEVYEVALALVAQAFIGKKPHLLQDADKQFQQLQQAKVMAMEIPAMLYDTRNNWEIDFGLERGLCALLIGKVDECR
# B5: ARC6 library clone, prey fragment nucleotides 192-961 (domain or fragment, UniProt Q9FIG9 65-320)
# chain: TTTATLVSPPPSIDRPERHVPIPIDFYQVLGAQTHFLTDGIRRAFEARVSKPPQFGFSDDALISRRQILQAACETLSNPRSRREYNEGLLDDEEATVITDVPWDKVPGALCVLQEGGETEIVLRVGEALLKERLPKSFKQDVVLVMALAFLDVSRDAMALDPPDFITGYEFVEEALKLLQEEGASSLAPDLRAQIDETLEEITPRYVLELLGLPLGDDYAAKRLNGLSGVRNILWSVGGGGASALVGGLTREKFMN
# B6: ARC6 library clone, prey fragment nucleotides 240-968 (domain or fragment, UniProt Q9FIG9 81-323)
# chain: ERHVPIPIDFYQVLGAQTHFLTDGIRRAFEARVSKPPQFGFSDDALISRRQILQAACETLSNPRSRREYNEGLLDDEEATVITDVPWDKVPGALCVLQEGGETEIVLRVGEALLKERLPKSFKQDVVLVMALAFLDVSRDAMALDPPDFITGYEFVEEALKLLQEEGASSLAPDLRAQIDETLEEITPRYVLELLGLPLGDDYAAKRLNGLSGVRNILWSVGGGGASALVGGLTREKFMNEAF
# B7: ATSIZ1/SIZ1 library clone, prey fragment nucleotides 387-1984 (domain or fragment, UniProt Q680Q4 130-661)
# chain: EDPRCHVWQHVGCVILPDKPMDGNPPLPESFYCEICRLTRADPFWVTVAHPLSPVRLTATTIPNDGASTMQSVERTFQITRADKDLLAKPEYDVQAWCMLLNDKVLFRMQWPQYADLQVNGVPVRAINRPGGQLLGVNGRDDGPIITSCIRDGVNRISLSGGDVRIFCFGVRLVKRRTLQQVLNLIPEEGKGETFEDALARVRRCIGGGGGDDNADSDSDIEVVADFFGVNLRCPMSGSRIKVAGRFLPCVHMGCFDLDVFVELNQRSRKWQCPICLKNYSVEHVIVDPYFNRITSKMKHCDEEVTEIEVKPDGSWRVKFKRESERRELGELSQWHAPDGSLCPSAVDIKRKMEMLPVKQEGYSDGPAPLKLGIRKNRNGIWEVSKPNTNGLSSSNRQEKVGYQEKNIIPMSSSATGSGRDGDDASVNQDAIGTFDFVANGMELDSISMNVDSGYNFPDRNQSGEGGNNEVIVLSDSDDENDLVITPGPAYSGCQTDGGLTFPLNPPGIINSYNEDPHSIAGGSSGLGLFND
# B8: At2g22100 (RNA recognition motif (RRM) containing) library clone, prey fragment nucleotides 3-540 (domain or fragment, UniProt Q9SHZ5 2-180)
# chain: AKEGEERKKEKKEKKERKERKRREAEELAVREKKISKKHKSKSKEEEKPEKSKKKSKKYEEVEEEEKSPSPSPSPKKSKESKKKHKRSSDESEEIVDSKPVTVPIVTIESDSDFEFDKEDIKNLLESYSKEELINLIYKTAEKGSKLISAVFESADRDSSQRNIFVRGLGWDTTHENLK
# B9: At5g53140 (Protein phosphatase 2C, putative) library clone, prey fragment nucleotides 495-978 (domain or fragment, UniProt Q94AT1 166-326)
# chain: TKLALNETYKQTDVAFLESEKDTYRDDGSTASAAVLVGNHLYVANVGDSRTIVSKAGKAIALSDDHKPNRSDERKRIESAGGVIMWAGTWRVGGVLAMSRAFGNRMLKQFVVAEPEIQDLEIDHEAELLVLASDGLWDVVPNEDAVALAQSEEEPEAAARK
# B10: At2g35500 (Shikimate kinase-related) library clone, prey fragment nucleotides 15-1090 (domain or fragment, UniProt O82290 6-363)
# chain: SGLAIIFNSPSLNPVTTQATFLSSNRIRSSPRVFSGFHSLRRRGFRRFSQNVIPDRFNSFSCNCLSAVSTSTIDYEFTDGGKEVELRLRLKTGEILSPKDISVDADGTSLAVKEKRNGLLITLLETNHLFEKIMPSETIWYIDEDQLVVNMKKVDGELKWPDIVESWESLTAGMMQLLKGASIYIVGDSTEINQKVSRELAVGLGYSPLDSKELLESFSKQTIDSWILAEGPDSVAEAESSVLESLSSHVRTVVSTLGGKHGAAGRADQWRHLYSGFTVWVSQTEATDEESAKEEARRSKQEREIGYSNADVVVKLQGWDPTHAKSVAQASLSALKQLIISDKGLPGKKSLYIRLGCR
# What was measured:
# [1] = target: T1, CJD1_(60–164), LexA fusion (bait of the library screen) (Arabidopsis thaliana) (UniProt Q93WG3); assay: two-hybrid; library screen by Hybrigenics: LexA-CJD1(60-164) in pB27 as bait, random-primed A. thaliana one-week old seedling cDNA library in pP6 as prey; mating of Y187 and L40ΔGal4; His+ colonies on medium lacking tryptophan, leucine and histidine
# T1 sequence: B2 chain
# [2] = target: T2, ARC6_(84–169) (Arabidopsis thaliana) (UniProt Q9FIG9); assay: two-hybrid; directed Y2H with Clontech MatchMaker GAL4 Two-Hybrid System 3 (pGADT7/pGAD-GW and pGBKT7/pGBK-GW constructs); growth on selective medium
# T2 sequence: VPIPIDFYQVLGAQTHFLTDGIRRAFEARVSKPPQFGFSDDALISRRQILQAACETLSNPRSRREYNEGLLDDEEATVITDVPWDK
# [3] = target: T3, ARC6_(84–290) (Arabidopsis thaliana) (UniProt Q9FIG9); assay: as above
# T3 sequence: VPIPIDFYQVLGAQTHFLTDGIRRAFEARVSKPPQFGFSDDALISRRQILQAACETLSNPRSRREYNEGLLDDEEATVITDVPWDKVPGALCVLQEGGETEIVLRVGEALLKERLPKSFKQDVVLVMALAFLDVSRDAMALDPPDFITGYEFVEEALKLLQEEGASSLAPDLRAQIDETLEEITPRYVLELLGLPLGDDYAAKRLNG
# [4] = target: T4, Mature cpHSP70-1 (aa77–718) (Arabidopsis thaliana) (UniProt Q9STW6); assay: as above
# T4 sequence: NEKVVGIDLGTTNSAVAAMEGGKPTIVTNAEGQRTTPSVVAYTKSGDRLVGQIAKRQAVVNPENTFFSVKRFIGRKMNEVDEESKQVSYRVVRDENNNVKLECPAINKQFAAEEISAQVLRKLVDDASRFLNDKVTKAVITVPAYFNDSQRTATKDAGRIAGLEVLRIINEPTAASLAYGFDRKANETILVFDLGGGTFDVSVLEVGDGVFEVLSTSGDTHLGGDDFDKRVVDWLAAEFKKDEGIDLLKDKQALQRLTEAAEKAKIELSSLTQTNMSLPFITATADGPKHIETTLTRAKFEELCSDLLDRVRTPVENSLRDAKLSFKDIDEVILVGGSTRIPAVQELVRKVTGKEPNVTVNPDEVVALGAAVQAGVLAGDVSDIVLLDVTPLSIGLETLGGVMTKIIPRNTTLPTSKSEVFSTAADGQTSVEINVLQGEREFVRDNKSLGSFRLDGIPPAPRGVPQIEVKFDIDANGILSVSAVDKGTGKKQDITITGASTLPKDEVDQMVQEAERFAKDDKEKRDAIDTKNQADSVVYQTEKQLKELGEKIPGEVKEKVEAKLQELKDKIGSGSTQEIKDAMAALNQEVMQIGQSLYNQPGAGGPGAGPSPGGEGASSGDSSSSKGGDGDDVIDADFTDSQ
# [5] = target: T5, ARC6_(84–210) (Arabidopsis thaliana) (UniProt Q9FIG9); assay: as above
# T5 sequence: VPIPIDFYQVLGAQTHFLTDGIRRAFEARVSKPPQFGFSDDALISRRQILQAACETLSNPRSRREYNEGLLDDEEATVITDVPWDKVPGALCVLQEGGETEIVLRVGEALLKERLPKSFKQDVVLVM
# [6] = target: T6, ARC6_(84–250) (Arabidopsis thaliana) (UniProt Q9FIG9); assay: as above
# T6 sequence: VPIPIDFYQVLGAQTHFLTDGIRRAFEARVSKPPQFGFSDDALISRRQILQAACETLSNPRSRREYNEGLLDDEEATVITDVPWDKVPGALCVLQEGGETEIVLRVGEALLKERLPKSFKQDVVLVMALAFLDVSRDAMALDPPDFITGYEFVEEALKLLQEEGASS
# [7] = target: T7, ARC6_(120–331) (Arabidopsis thaliana) (UniProt Q9FIG9); assay: as above
# T7 sequence: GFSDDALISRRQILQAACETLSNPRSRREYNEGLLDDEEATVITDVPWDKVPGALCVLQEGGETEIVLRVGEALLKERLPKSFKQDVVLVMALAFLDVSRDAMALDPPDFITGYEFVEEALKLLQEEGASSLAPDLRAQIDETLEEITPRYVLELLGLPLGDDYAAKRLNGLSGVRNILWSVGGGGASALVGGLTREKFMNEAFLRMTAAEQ
Binder,binding [1],other results
B1,binds,
B2,,binding [2]: no binding; binding [3]: binds; binding [4]: no binding; binding [5]: no binding; binding [6]: no binding; binding [7]: no binding
B3,binds,
B4,binds,
B5,binds,
B6,binds,
B7,binds,
B8,binds,
B9,binds,
B10,binds,
